# In the supplement of paper PMC8728848:
# The list shows a part of the results.
# Columns and labels:
# Experiment in all cases: glycan array binding signal (z-score within array); higher = stronger binding
# Conditions in all cases: glycan notation: IUPAC condensed, linker removed
# [1] = molecular target: GlcNAc(b1-3)Gal(b1-3)GalNAc
# Procedure, shortened: (§1)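 Arrays were curated from the Consortium for Functional Glycomics database, 3228 in total, and kept only where the protein sequence was available. Binding is expressed as a within-array Z-score. This score was averaged across arrays of the same protein sequence at different concentrations or buffers and across linkers, and negative values can be read as non-binding.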
# GlcNAc(b1-3)Gal(b1-4)Glc = molecular target: GlcNAc(b1-3)Gal(b1-4)Glc
# Procedure, shortened: as §1
# [2] = molecular target: GlcNAc(b1-3)Gal(b1-4)GlcNAc
# Procedure, shortened: as §1
# [3] = molecular target: GlcNAc(b1-3)Gal(b1-4)GlcNAc(b1-2)Man(a1-3)[GlcNAc(b1-3)Gal(b1-4)GlcNAc(b1-2)Man(a1-6)]Man(b1-4)GlcNAc(b1-4)GlcNAc
# Procedure, shortened: as §1
# [4] = molecular target: GlcNAc(b1-3)Gal(b1-4)GlcNAc(b1-2)Man(a1-3)[GlcNAc(b1-3)Gal(b1-4)GlcNAc(b1-2)Man(a1-6)]Man(b1-4)GlcNAc(b1-4)[Fuc(a1-6)]GlcNAc
# Procedure, shortened: as §1
# [5] = molecular target: GlcNAc(b1-3)Gal(b1-4)GlcNAc(b1-2)[GlcNAc(b1-3)Gal(b1-4)GlcNAc(b1-6)]Man(a1-6)[GlcNAc(b1-3)Gal(b1-4)GlcNAc(b1-2)Man(a1-3)]Man(b1-4)GlcNAc(b1-4)GlcNAc
# Procedure, shortened: as §1
# [6] = molecular target: GlcNAc(b1-3)Gal(b1-4)GlcNAc(b1-3)Gal(b1-4)GlcNAc
# Procedure, shortened: as §1
# [7] = molecular target: GlcNAc(b1-3)Gal(b1-4)GlcNAc(b1-3)Gal(b1-4)GlcNAc(b1-2)Man(a1-3)[GlcNAc(b1-3)Gal(b1-4)GlcNAc(b1-3)Gal(b1-4)GlcNAc(b1-2)Man(a1-6)]Man(b1-4)GlcNAc(b1-4)GlcNAc
# Procedure, shortened: as §1
# [8] = molecular target: GlcNAc(b1-3)Gal(b1-4)GlcNAc(b1-3)Gal(b1-4)GlcNAc(b1-2)Man(a1-3)[GlcNAc(b1-3)Gal(b1-4)GlcNAc(b1-3)Gal(b1-4)GlcNAc(b1-2)Man(a1-6)]Man(b1-4)GlcNAc(b1-4)[Fuc(a1-6)]GlcNAc
# Procedure, shortened: as §1
# [9] = molecular target: GlcNAc(b1-3)Gal(b1-4)GlcNAc(b1-3)Gal(b1-4)GlcNAc(b1-2)[GlcNAc(b1-3)Gal(b1-4)GlcNAc(b1-3)Gal(b1-4)GlcNAc(b1-6)]Man(a1-6)[GlcNAc(b1-3)Gal(b1-4)GlcNAc(b1-3)Gal(b1-4)GlcNAc(b1-2)Man(a1-3)]Man(b1-4)GlcNAc(b1-4)[Fuc(a1-6)]GlcNAc
# Procedure, shortened: as §1
# [10] = molecular target: GlcNAc(b1-3)Gal(b1-4)GlcNAc(b1-3)Gal(b1-4)GlcNAc(b1-3)Gal(b1-4)GlcNAc(b1-2)Man(a1-3)[GlcNAc(b1-3)Gal(b1-4)GlcNAc(b1-3)Gal(b1-4)GlcNAc(b1-3)Gal(b1-4)GlcNAc(b1-2)Man(a1-6)]Man(b1-4)GlcNAc(b1-4)GlcNAc
# Procedure, shortened: as §1
# [11] = molecular target: GlcNAc(b1-3)Gal(b1-4)GlcNAc(b1-3)Gal(b1-4)GlcNAc(b1-3)Gal(b1-4)GlcNAc(b1-2)Man(a1-3)[GlcNAc(b1-3)Gal(b1-4)GlcNAc(b1-3)Gal(b1-4)GlcNAc(b1-3)Gal(b1-4)GlcNAc(b1-2)Man(a1-6)]Man(b1-4)GlcNAc(b1-4)[Fuc(a1-6)]GlcNAc
# Procedure, shortened: as §1
# [12] = molecular target: GlcNAc(b1-3)Gal(b1-4)GlcNAc(b1-3)Gal(b1-4)GlcNAc(b1-3)Gal(b1-4)GlcNAc(b1-2)[GlcNAc(b1-3)Gal(b1-4)GlcNAc(b1-3)Gal(b1-4)GlcNAc(b1-3)Gal(b1-4)GlcNAc(b1-6)]Man(a1-6)[GlcNAc(b1-3)Gal(b1-4)GlcNAc(b1-3)Gal(b1-4)GlcNAc(b1-3)Gal(b1-4)GlcNAc(b1-2)Man(a1-3)]Man(b1-4)GlcNAc(b1-4)[Fuc(a1-6)]GlcNAc
# Procedure, shortened: as §1
# [13] = molecular target: GlcNAc(b1-3)Gal(b1-4)GlcNAc(b1-3)Gal(b1-4)GlcNAc(b1-3)Gal(b1-4)GlcNAc(b1-3)Gal(b1-4)GlcNAc(b1-2)Man(a1-3)[GlcNAc(b1-3)Gal(b1-4)GlcNAc(b1-3)Gal(b1-4)GlcNAc(b1-3)Gal(b1-4)GlcNAc(b1-3)Gal(b1-4)GlcNAc(b1-2)Man(a1-6)]Man(b1-4)GlcNAc(b1-4)GlcNAc
# Procedure, shortened: as §1
# [14] = molecular target: GlcNAc(b1-3)Gal(b1-4)GlcNAc(b1-3)Gal(b1-4)GlcNAc(b1-3)Gal(b1-4)GlcNAc(b1-3)Gal(b1-4)GlcNAc(b1-2)Man(a1-3)[GlcNAc(b1-3)Gal(b1-4)GlcNAc(b1-3)Gal(b1-4)GlcNAc(b1-3)Gal(b1-4)GlcNAc(b1-3)Gal(b1-4)GlcNAc(b1-2)Man(a1-6)]Man(b1-4)GlcNAc(b1-4)[Fuc(a1-6)]GlcNAc
# Procedure, shortened: as §1
# [15] = molecular target: GlcNAc(b1-3)Gal(b1-4)GlcNAc(b1-3)Gal(b1-4)GlcNAc(b1-3)Gal(b1-4)GlcNAc(b1-3)Gal(b1-4)GlcNAc(b1-2)[GlcNAc(b1-3)Gal(b1-4)GlcNAc(b1-3)Gal(b1-4)GlcNAc(b1-3)Gal(b1-4)GlcNAc(b1-3)Gal(b1-4)GlcNAc(b1-6)]Man(a1-6)[GlcNAc(b1-3)Gal(b1-4)GlcNAc(b1-3)Gal(b1-4)GlcNAc(b1-3)Gal(b1-4)GlcNAc(b1-3)Gal(b1-4)GlcNAc(b1-2)Man(a1-3)]Man(b1-4)GlcNAc(b1-4)[Fuc(a1-6)]GlcNAc
# Procedure, shortened: as §1
# [16] = molecular target: GlcNAc(b1-3)Gal(b1-4)GlcNAc(b1-3)Gal(b1-4)GlcNAc(b1-3)GalNAc
# Procedure, shortened: as §1
# [17] = molecular target: GlcNAc(b1-3)Gal(b1-4)GlcNAc(b1-3)GalNAc
# Procedure, shortened: as §1
# [18] = molecular target: GlcNAc(b1-3)Gal(b1-4)GlcNAc(b1-3)[GlcNAc(b1-3)Gal(b1-4)GlcNAc(b1-3)]GalNAc
# Procedure, shortened: as §1
# [19] = molecular target: GlcNAc(b1-3)Gal(b1-4)GlcNAc(b1-6)[Gal(b1-3)]GalNAc
# Procedure, shortened: as §1
# [20] = molecular target: GlcNAc(b1-3)Gal(b1-4)GlcNAc(b1-6)[GlcNAc(b1-3)Gal(b1-3)]GalNAc
# Procedure, shortened: as §1
# [21] = molecular target: GlcNAc(b1-3)Gal(b1-4)GlcNAc(b1-6)[GlcNAc(b1-3)]Gal(b1-4)GlcNAc
# Procedure, shortened: as §1
# GlcNAc(b1-3)GalNAc = molecular target: GlcNAc(b1-3)GalNAc
# Procedure, shortened: as §1
# GlcNAc(b1-3)Man = molecular target: GlcNAc(b1-3)Man
# Procedure, shortened: as §1
# [22] = molecular target: GlcNAc(b1-3)[GlcNAc(b1-4)][GlcNAc(b1-6)]GlcNAc
# Procedure, shortened: as §1
# [23] = molecular target: GlcNAc(b1-3)[GlcNAc(b1-6)]Gal(b1-4)GlcNAc
# Procedure, shortened: as §1
# [24] = molecular target: GlcNAc(b1-3)[GlcNAc(b1-6)]GalNAc
# Procedure, shortened: as §1
# [25] = molecular target: GlcNAc(b1-4)Gal(b1-4)GlcNAc
# Procedure, shortened: as §1
# GlcNAc(b1-4)GlcNAc = molecular target: GlcNAc(b1-4)GlcNAc
# Procedure, shortened: as §1
# [26] = molecular target: GlcNAc(b1-4)GlcNAc(b1-4)GlcNAc
# Procedure, shortened: as §1
# [27] = molecular target: GlcNAc(b1-4)GlcNAc(b1-4)GlcNAc(b1-4)GlcNAc(b1-4)GlcNAc
# Procedure, shortened: as §1
# [28] = molecular target: GlcNAc(b1-4)GlcNAc(b1-4)GlcNAc(b1-4)GlcNAc(b1-4)GlcNAc(b1-4)GlcNAc
# Procedure, shortened: as §1
# [29] = molecular target: GlcNAc(b1-4)[GlcNAc(b1-6)]GalNAc
# Procedure, shortened: as §1
# [30] = molecular target: GlcNAc(b1-6)Gal(b1-4)GlcNAc
# Procedure, shortened: as §1
# GlcNAc(b1-6)GalNAc = molecular target: GlcNAc(b1-6)GalNAc
# Procedure, shortened: as §1
# [31] = molecular target: GlcNAc6S(b1-3)Gal(b1-4)GlcNAc
# Procedure, shortened: as §1
# Kdn(a2-3)Gal(b1-3)GalNAc = molecular target: Kdn(a2-3)Gal(b1-3)GalNAc
# Procedure, shortened: as §1
# Kdn(a2-3)Gal(b1-3)GlcNAc = molecular target: Kdn(a2-3)Gal(b1-3)GlcNAc
# Procedure, shortened: as §1
# Kdn(a2-3)Gal(b1-4)Glc = molecular target: Kdn(a2-3)Gal(b1-4)Glc
# Procedure, shortened: as §1
# Kdn(a2-3)Gal(b1-4)GlcNAc = molecular target: Kdn(a2-3)Gal(b1-4)GlcNAc
# Procedure, shortened: as §1
# [32] = molecular target: Kdn(a2-3)Gal(b1-4)[Fuc(a1-3)]GlcNAc
# Procedure, shortened: as §1
# Kdn(a2-6)Gal(b1-4)GlcNAc = molecular target: Kdn(a2-6)Gal(b1-4)GlcNAc
# Procedure, shortened: as §1
# [33] = molecular target: Man(a1-2)Man(a1-2)Man(a1-3)Man
# Procedure, shortened: as §1
# [34] = molecular target: Man(a1-2)Man(a1-2)Man(a1-6)[Man(a1-3)]Man
# Procedure, shortened: as §1
# Man(a1-2)Man(a1-3)Man = molecular target: Man(a1-2)Man(a1-3)Man
# Procedure, shortened: as §1
binder,measurement,setting,value
"CFEM-SCL (Saccharomyces cerevisiae), O13547 (protein) MRATTLLSSVVSLALLSKEVLATPPACLLACVAQVGKSSSTCDSLNQVTCYCEHENSAVKKCLDSICPNNDADAAYSAFKSSCSEQNASLGD",glycan array binding signal (z-score),[1],-0.194
same,glycan array binding signal (z-score),GlcNAc(b1-3)Gal(b1-4)Glc,-0.247
same,glycan array binding signal (z-score),[2],-0.176
same,glycan array binding signal (z-score),[3],-0.213
same,glycan array binding signal (z-score),[4],-0.119
same,glycan array binding signal (z-score),[5],0.511
same,glycan array binding signal (z-score),[6],-0.311
same,glycan array binding signal (z-score),[7],0.843
same,glycan array binding signal (z-score),[8],0.04
same,glycan array binding signal (z-score),[9],0.009
same,glycan array binding signal (z-score),[10],-0.181
same,glycan array binding signal (z-score),[11],0.129
same,glycan array binding signal (z-score),[12],-0.17
same,glycan array binding signal (z-score),[13],-0.141
same,glycan array binding signal (z-score),[14],-0.181
same,glycan array binding signal (z-score),[15],-0.199
same,glycan array binding signal (z-score),[16],-0.207
same,glycan array binding signal (z-score),[17],-0.278
same,glycan array binding signal (z-score),[18],-0.26
same,glycan array binding signal (z-score),[19],0.774
same,glycan array binding signal (z-score),[20],-0.317
same,glycan array binding signal (z-score),[21],-0.268
same,glycan array binding signal (z-score),GlcNAc(b1-3)GalNAc,-0.175
same,glycan array binding signal (z-score),GlcNAc(b1-3)Man,-0.281
same,glycan array binding signal (z-score),[22],-0.239
same,glycan array binding signal (z-score),[23],-0.248
same,glycan array binding signal (z-score),[24],-0.309
same,glycan array binding signal (z-score),[25],-0.285
same,glycan array binding signal (z-score),GlcNAc(b1-4)GlcNAc,-0.288
same,glycan array binding signal (z-score),[26],-0.291
same,glycan array binding signal (z-score),[27],-0.275
same,glycan array binding signal (z-score),[28],-0.126
same,glycan array binding signal (z-score),[29],-0.294
same,glycan array binding signal (z-score),[30],0.154
same,glycan array binding signal (z-score),GlcNAc(b1-6)GalNAc,-0.285
same,glycan array binding signal (z-score),[31],0.208
same,glycan array binding signal (z-score),Kdn(a2-3)Gal(b1-3)GalNAc,-0.177
same,glycan array binding signal (z-score),Kdn(a2-3)Gal(b1-3)GlcNAc,-0.26
same,glycan array binding signal (z-score),Kdn(a2-3)Gal(b1-4)Glc,-0.324
same,glycan array binding signal (z-score),Kdn(a2-3)Gal(b1-4)GlcNAc,-0.263
same,glycan array binding signal (z-score),[32],-0.086
same,glycan array binding signal (z-score),Kdn(a2-6)Gal(b1-4)GlcNAc,-0.312
same,glycan array binding signal (z-score),[33],0.113
same,glycan array binding signal (z-score),[34],-0.198
same,glycan array binding signal (z-score),Man(a1-2)Man(a1-3)Man,-0.279
